Measured values: the supplement of paper PMC8728848
This is one part of the list.

How the values were obtained:
Assay in all cases: glycan array binding signal (z-score within array); higher = stronger binding
Settings in all cases: glycan notation: IUPAC condensed, linker removed; mutation: G182A
[1] = target: Gal(b1-4)GlcNAc(a1-6)Gal(b1-4)GlcNAc
Method in brief: (§1)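 From the Consortium for Functional Glycomics database, 3228 arrays were curated, keeping only those whose protein sequence was available. Binding is given as a within-array Z-score averaged across arrays sharing a protein sequence and across linkers. Negative Z-scores can be read as non-binding.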

[2] = target: Gal(b1-4)GlcNAc(b1-2)Man(a1-3)Man(b1-4)GlcNAc(b1-4)GlcNAc
Method in brief: as §1

[3] = target: Gal(b1-4)GlcNAc(b1-2)Man(a1-3)[Gal(b1-4)GlcNAc(b1-2)Man(a1-6)]Man(b1-4)GlcNAc(b1-4)GlcNAc
Method in brief: as §1

[4] = target: Gal(b1-4)GlcNAc(b1-2)Man(a1-3)[Gal(b1-4)GlcNAc(b1-2)Man(a1-6)]Man(b1-4)GlcNAc(b1-4)[Fuc(a1-6)]GlcNAc
Method in brief: as §1

[5] = target: Gal(b1-4)GlcNAc(b1-2)Man(a1-3)[GlcNAc(b1-2)Man(a1-6)]Man(b1-4)GlcNAc(b1-4)GlcNAc
Method in brief: as §1

[6] = target: Gal(b1-4)GlcNAc(b1-2)Man(a1-3)[Man(a1-6)]Man(b1-4)GlcNAc(b1-4)GlcNAc
Method in brief: as §1

[7] = target: Gal(b1-4)GlcNAc(b1-2)Man(a1-6)Man(b1-4)GlcNAc(b1-4)GlcNAc
Method in brief: as §1

[8] = target: Gal(b1-4)GlcNAc(b1-2)Man(a1-6)[GlcNAc(b1-2)Man(a1-3)]Man(b1-4)GlcNAc(b1-4)GlcNAc
Method in brief: as §1

[9] = target: Gal(b1-4)GlcNAc(b1-2)Man(a1-6)[Man(a1-3)]Man(b1-4)GlcNAc(b1-4)GlcNAc
Method in brief: as §1

[10] = target: Gal(b1-4)GlcNAc(b1-2)[Gal(b1-4)GlcNAc(b1-4)]Man(a1-3)[Gal(b1-4)GlcNAc(b1-2)Man(a1-6)]Man(b1-4)GlcNAc(b1-4)GlcNAc
Method in brief: as §1

[11] = target: Gal(b1-4)GlcNAc(b1-2)[Gal(b1-4)GlcNAc(b1-4)]Man(a1-3)[Gal(b1-4)GlcNAc(b1-2)[Gal(b1-4)GlcNAc(b1-6)]Man(a1-6)]Man(b1-4)GlcNAc(b1-4)GlcNAc
Method in brief: as §1

[12] = target: Gal(b1-4)GlcNAc(b1-3)Gal(b1-3)GlcNAc
Method in brief: as §1

[13] = target: Gal(b1-4)GlcNAc(b1-3)Gal(b1-4)Glc
Method in brief: as §1

[14] = target: Gal(b1-4)GlcNAc(b1-3)Gal(b1-4)GlcNAc
Method in brief: as §1

[15] = target: Gal(b1-4)GlcNAc(b1-3)Gal(b1-4)GlcNAc(b1-3)Gal(b1-4)GlcNAc
Method in brief: as §1

[16] = target: Gal(b1-4)GlcNAc(b1-3)Gal(b1-4)[Fuc(a1-3)]GlcNAc(b1-3)Gal(b1-4)[Fuc(a1-3)]GlcNAc
Method in brief: as §1

[17] = target: Gal(b1-4)GlcNAc(b1-3)GalNAc
Method in brief: as §1

[18] = target: Gal(b1-4)GlcNAc(b1-3)[Gal(b1-4)GlcNAc(b1-6)]Gal(b1-4)GlcNAc
Method in brief: as §1

[19] = target: Gal(b1-4)GlcNAc(b1-3)[Gal(b1-4)GlcNAc(b1-6)]GalNAc
Method in brief: as §1

[20] = target: Gal(b1-4)GlcNAc(b1-3)[GlcNAc(b1-6)]Gal(b1-4)GlcNAc
Method in brief: as §1

[21] = target: Gal(b1-4)GlcNAc(b1-6)Gal(b1-4)GlcNAc
Method in brief: as §1

[22] = target: Gal(b1-4)GlcNAc(b1-6)GalNAc
Method in brief: as §1

[23] = target: Gal(b1-4)GlcNAc(b1-6)[Gal(b1-3)]GalNAc
Method in brief: as §1

Gal3S(b1-3)GalNAc = target: Gal3S(b1-3)GalNAc
Method in brief: as §1

Gal3S(b1-3)GlcNAc = target: Gal3S(b1-3)GlcNAc
Method in brief: as §1

[24] = target: Gal3S(b1-3)[Fuc(a1-4)]GlcNAc
Method in brief: as §1

Gal3S(b1-4)Glc = target: Gal3S(b1-4)Glc
Method in brief: as §1

Gal3S(b1-4)Glc6S = target: Gal3S(b1-4)Glc6S
Method in brief: as §1

Gal3S(b1-4)GlcNAc = target: Gal3S(b1-4)GlcNAc
Method in brief: as §1

Gal3S(b1-4)GlcNAc6S = target: Gal3S(b1-4)GlcNAc6S
Method in brief: as §1

[25] = target: Gal3S(b1-4)[Fuc(a1-3)]Glc
Method in brief: as §1

[26] = target: Gal3S(b1-4)[Fuc(a1-3)]Glc6S
Method in brief: as §1

Gal3S4S(b1-4)GlcNAc = target: Gal3S4S(b1-4)GlcNAc
Method in brief: as §1

Gal3S6S(b1-4)GlcNAc = target: Gal3S6S(b1-4)GlcNAc
Method in brief: as §1

Gal3S6S(b1-4)GlcNAc6S = target: Gal3S6S(b1-4)GlcNAc6S
Method in brief: as §1

Gal4S(b1-4)GlcNAc = target: Gal4S(b1-4)GlcNAc
Method in brief: as §1

Gal4S6S(b1-4)GlcNAc = target: Gal4S6S(b1-4)GlcNAc
Method in brief: as §1

B1: Gal 3 (Homo sapiens), P17931 (protein)
chain: MADNFSLHDALSGSGNPNPQGWPGAWGNQPAGAGGYPGASYPGAYPGQAPPGAYPGQAPPGAYHGAPGAYPGAPAPGVYPGPPSGPGAYPSSGQPSAPGAYPATGPYGAPAGPLIVPYNLPLPGGVVPRMLITILGTVKPNANILDFQRGNDVAFHFNPRFNENNRRVIVCNTKLDNNWAREERQSVFPFESGKPFKIQVLVEPDHFKVAVNDAHLLQYNHRVKKLNEISKLGISGDIDLTSASYTMI
- glycan array binding signal (z-score) [1]: -0.16
- glycan array binding signal (z-score) [2]: -0.191
- glycan array binding signal (z-score) [3]: -0.172
- glycan array binding signal (z-score) [4]: -0.197
- glycan array binding signal (z-score) [5]: -0.154
- glycan array binding signal (z-score) [6]: -0.187
- glycan array binding signal (z-score) [7]: -0.141
- glycan array binding signal (z-score) [8]: -0.19
- glycan array binding signal (z-score) [9]: -0.197
- glycan array binding signal (z-score) [10]: -0.189
- glycan array binding signal (z-score) [11]: -0.136
- glycan array binding signal (z-score) [12]: 0.746
- glycan array binding signal (z-score) [13]: -0.074
- glycan array binding signal (z-score) [14]: 2.97
- glycan array binding signal (z-score) [15]: 7.13
- glycan array binding signal (z-score) [16]: -0.192
- glycan array binding signal (z-score) [17]: -0.176
- glycan array binding signal (z-score) [18]: -0.163
- glycan array binding signal (z-score) [19]: -0.173
- glycan array binding signal (z-score) [20]: -0.188
- glycan array binding signal (z-score) [21]: -0.196
- glycan array binding signal (z-score) [22]: -0.19
- glycan array binding signal (z-score) [23]: -0.191
- glycan array binding signal (z-score) (Gal3S(b1-3)GalNAc): -0.183
- glycan array binding signal (z-score) (Gal3S(b1-3)GlcNAc): -0.061
- glycan array binding signal (z-score) [24]: -0.186
- glycan array binding signal (z-score) (Gal3S(b1-4)Glc): -0.181
- glycan array binding signal (z-score) (Gal3S(b1-4)Glc6S): -0.157
- glycan array binding signal (z-score) (Gal3S(b1-4)GlcNAc): -0.138
- glycan array binding signal (z-score) (Gal3S(b1-4)GlcNAc6S): 0.037
- glycan array binding signal (z-score) [25]: -0.193
- glycan array binding signal (z-score) [26]: -0.181
- glycan array binding signal (z-score) (Gal3S4S(b1-4)GlcNAc): -0.192
- glycan array binding signal (z-score) (Gal3S6S(b1-4)GlcNAc): -0.196
- glycan array binding signal (z-score) (Gal3S6S(b1-4)GlcNAc6S): -0.184
- glycan array binding signal (z-score) (Gal4S(b1-4)GlcNAc): -0.19
- glycan array binding signal (z-score) (Gal4S6S(b1-4)GlcNAc): -0.193
